Experimental findings from the antibiotic and cytotoxicity screens of Wong et al. (2023) are described below.

The list shows a part of the results.

One experiment has as its system HepG2. Put plainly: cytotoxicity call (relative viability < 0.9). The following applies: 10 µM.
For the compound `Cc1noc(C)c1S(=O)(=O)Nc1ccc2c(c1)C(=O)N([C@H](C)CO)C[C@H](C)[C@@H](CN(C)Cc1ccc(C(F)(F)F)cc1)OCCCC[C@@H](C)O2`, the cytotoxicity call is “inactive”.
Still for that read-out and setting: for `Cc1noc(C)c1NC(=O)Nc1ccc2c(c1)C(=O)N([C@H](C)CO)C[C@H](C)[C@@H](CN(C)Cc1ccncc1)OCCCC[C@H](C)O2` the value was “inactive”; for `COCC(=O)Nc1ccc2c(c1)[C@H]1C[C@H](CC(=O)N3CCOCC3)O[C@H](CO)[C@H]1O2`, “inactive”.
For `CC(C)NC(=O)Nc1ccc2c(c1)C(=O)N([C@H](C)CO)C[C@H](C)[C@H](CN(C)Cc1ccc(C(F)(F)F)cc1)OCCCC[C@@H](C)O2`, the cytotoxicity call is “inactive”.
As for `CC1C=CC=CC=CC=CC=CC=CC=CC(OC2OC(C)C(O)C(N)C2O)CC(O)C(C(=O)O)C(O)CC(=O)CC(O)CC(O)CC(O)CC(=O)CCCC(=O)CC(=O)OC1C(C)CC(C)C(O)CC(=O)c1ccc(N)cc1` (centres undefined), the cytotoxicity call was “active”.
Same read-out and setting: in the case of `COc1ccc(NC(=O)N(C)C[C@H]2Oc3ccc(NC(=O)Nc4ccc(C(F)(F)F)cc4)cc3CC(=O)N([C@@H](C)CO)C[C@H]2C)cc1` it was “active”; in that of `CC(=O)Nc1ccc(S(=O)(=O)Nc2onc(C)c2C)cc1`, “inactive”.
The same measure, in the same setting: for `C[C@H](CO)N1C[C@H](C)[C@@H](CN(C)C(=O)Nc2ccc3c(c2)OCO3)Oc2ncc(-c3cncnc3)cc2C1=O` the value was “active”; for `C[C@@H]1CN([C@H](C)CO)C(=O)Cc2cc(NS(=O)(=O)c3cn(C)cn3)ccc2O[C@H]1CN(C)Cc1ccncc1`, “inactive”.
Same read-out and setting: in the case of `CCCN(C)C[C@H]1OCCCC[C@@H](C)Oc2ccc(NC(=O)Nc3ccc(OC)cc3)cc2C(=O)N([C@H](C)CO)C[C@@H]1C` it was “inactive”.
Regarding `C[C@@H]1CN([C@H](C)CO)S(=O)(=O)c2ccc(C3=CCCC3)cc2O[C@@H]1CN(C)C(=O)C1CCOCC1`, the cytotoxicity call was “inactive”.
Turning to `C[C@H](CO)N1C[C@H](C)[C@H](CN(C)S(=O)(=O)c2cn(C)cn2)OCCCC[C@H](C)Oc2ccc(NC(=O)Nc3cccc4ccccc34)cc2C1=O`, the cytotoxicity call is “inactive”.
For `CC(C)CC#Cc1cnc2c(c1)C(=O)N([C@H](C)CO)C[C@@H](C)[C@H](CN(C)S(=O)(=O)c1ccccc1)O2`, the cytotoxicity call was “inactive”.
As for `CC1=CC(=O)C2=C(C)CCC3C(C)C(=O)OC3C12` (centres undefined), the cytotoxicity call was “inactive”.
On to `CN(CC(=O)NC1CCCCC1)S(C)(=O)=O`, for which the cytotoxicity call was “inactive”.
In the case of `CC(C)NC(=O)N(C)C[C@@H]1Oc2c(NC(=O)NC3CCCCC3)cccc2C(=O)N([C@H](C)CO)C[C@@H]1C`, the cytotoxicity call was “inactive”.
Consider `C[C@@H]1CCCCO[C@H](CN(C)C(=O)Nc2ccc(F)cc2)[C@H](C)CN([C@@H](C)CO)C(=O)c2cc(NC(=O)NC3CCCCC3)ccc2O1`, for which the cytotoxicity call is “inactive”.
In the case of `C[C@@H]1CN([C@@H](C)CO)C(=O)c2cccc(NC(=O)c3ccncc3)c2O[C@H]1CN(C)S(=O)(=O)c1ccccc1`, the cytotoxicity call was “inactive”.
On the same count and under the same terms, for `CC(C)NC(=O)Nc1ccc2c(c1)C(=O)N([C@@H](C)CO)C[C@H](C)[C@H](CN(C)Cc1ccc(-c3ccccc3)cc1)O2` the value was “inactive”.
As to `C[C@H]1CN([C@@H](C)CO)C(=O)c2cc(C#Cc3cccc(F)c3)cnc2O[C@@H]1CN(C)C(=O)C1CCOCC1`, the cytotoxicity call is “inactive”.
For the compound `O=C(C[C@H]1CC[C@@H]2[C@H](COC[C@@H](O)CN2C(=O)Nc2cc(Cl)cc(Cl)c2)O1)N1CCOCC1`, the cytotoxicity call is “inactive”.
With `O=C(O)c1cccnc1Nc1cccc(C(F)(F)F)c1`, the cytotoxicity call was “inactive”.
For the compound `C[C@@H]1CN([C@H](C)CO)C(=O)c2cc(NC(=O)Nc3ccccc3)ccc2O[C@@H](C)CCCCO[C@H]1CN(C)C(=O)Cc1ccccc1`, the cytotoxicity call was “inactive”.
For the compound `C(=C\[C@@H]1Nc2ccccc2-c2nc3ccccc3n21)/c1ccccc1`, the cytotoxicity call is “inactive”.
On to `COc1ncc(-c2nc(N3CCOCC3)nc3c(CN4CCC(C(C)(C)O)CC4)cc(F)cc23)cc1NS(C)(=O)=O`, for which the cytotoxicity call is “inactive”.
With `C[C@H]1CCCCO[C@H](CN(C)C(=O)Nc2ccc(C(F)(F)F)cc2)[C@@H](C)CN([C@@H](C)CO)C(=O)c2cc(NC(=O)Nc3cccc4ccccc34)ccc2O1`, the cytotoxicity call was “inactive”.
As to `COc1ccc(S(=O)(=O)N(C)C[C@@H]2Oc3ncc(C#CC4(O)CCCC4)cc3C(=O)N([C@H](C)CO)C[C@H]2C)cc1`, the cytotoxicity call is “inactive”.
Turning to `C[C@H](CO)N1C[C@H](C)[C@@H](CN(C)C(=O)c2ccc3c(c2)OCO3)Oc2ncc(C#Cc3ccccc3F)cc2C1=O`, the cytotoxicity call was “inactive”.
On the same count and under the same terms, in the case of `C[C@H]1CN([C@@H](C)CO)C(=O)c2cc(NC(=O)CCCN(C)C)ccc2O[C@H]1CN(C)Cc1ccc(C(=O)O)cc1` it was “inactive”.

Another experiment concerns S. aureus RN4220. Put plainly: growth inhibition call (relative growth <= 0.2). The settings on record: 50 µM.
In the case of `C[C@H](CO)N1C[C@H](C)[C@@H](CN(C)S(=O)(=O)c2ccc(Cl)cc2)Oc2c(NC(=O)Nc3ccc(C(F)(F)F)cc3)cccc2C1=O`, the growth inhibition call was “inactive”.
On the same count and under the same terms, for `CCCNC(C)C(=O)Nc1ccccc1C.Cl` (centres undefined) the value was “inactive”; for `C[C@@H]1CN([C@@H](C)CO)C(=O)c2cccc(N(C)C)c2O[C@@H]1CN(C)S(C)(=O)=O`, “inactive”; for `C[N+](C)(C)CCCCNC(=O)[C@@H]1C[C@@H]2C(=O)N[C@@H](CCCC[N+](C)(C)C)C(=O)N2[C@@H]1c1ccc(O)cc1`, “inactive”.
As for `C[C@@H]1CN([C@@H](C)CO)C(=O)c2cc(NC(=O)Nc3ccccc3)ccc2O[C@@H](C)CCCCO[C@H]1CN(C)S(=O)(=O)c1ccc(Cl)cc1`, the growth inhibition call is “inactive”.
On to `C[C@@H]1CN([C@H](C)CO)C(=O)c2cc(NC(=O)NC3CCCCC3)ccc2O[C@@H](C)CCCCO[C@@H]1CN(C)S(=O)(=O)c1cccs1`, for which the growth inhibition call is “inactive”.
For `C[C@@H]1CN([C@H](C)CO)C(=O)c2cc(NS(C)(=O)=O)ccc2O[C@@H]1CN(C)C(=O)Nc1ccc(C(F)(F)F)cc1`, the growth inhibition call is “inactive”.
Still for that read-out and setting: in the case of `C[C@@H]1CN([C@@H](C)CO)C(=O)c2cc(NC(=O)c3ccncc3)ccc2O[C@@H](C)CCCCO[C@H]1CN(C)Cc1ccc(C(F)(F)F)cc1` it was “inactive”.
Turning to `C[C@H]1CN([C@@H](C)CO)C(=O)c2cc(NC(=O)c3ccncc3)ccc2O[C@H]1CN(C)S(=O)(=O)c1cn(C)cn1`, the growth inhibition call is “inactive”.
For the compound `C[C@H](CO)N1C[C@H](C)[C@@H](CN(C)Cc2ccc(C(=O)O)cc2)OCCCC[C@H](C)Oc2ccc(NS(=O)(=O)c3ccccc3)cc2C1=O`, the growth inhibition call is “inactive”.
On to `Cc1noc(C)c1S(=O)(=O)Nc1ccc2c(c1)C(=O)N([C@H](C)CO)C[C@H](C)[C@@H](CN(C)Cc1ccc(C(F)(F)F)cc1)OCCCC[C@@H](C)O2`, for which the growth inhibition call is “inactive”.
Still for that read-out and setting: in the case of `Cc1noc(C)c1NC(=O)Nc1ccc2c(c1)C(=O)N([C@H](C)CO)C[C@H](C)[C@@H](CN(C)Cc1ccncc1)OCCCC[C@H](C)O2` it was “inactive”; in that of `COCC(=O)Nc1ccc2c(c1)[C@H]1C[C@H](CC(=O)N3CCOCC3)O[C@H](CO)[C@H]1O2`, “inactive”.
`CC(C)NC(=O)Nc1ccc2c(c1)C(=O)N([C@H](C)CO)C[C@H](C)[C@H](CN(C)Cc1ccc(C(F)(F)F)cc1)OCCCC[C@@H](C)O2`: the growth inhibition call is “inactive”.
As for `CC1C=CC=CC=CC=CC=CC=CC=CC(OC2OC(C)C(O)C(N)C2O)CC(O)C(C(=O)O)C(O)CC(=O)CC(O)CC(O)CC(O)CC(=O)CCCC(=O)CC(=O)OC1C(C)CC(C)C(O)CC(=O)c1ccc(N)cc1` (centres undefined), the growth inhibition call was “inactive”.
The same measure, in the same setting: for `COc1ccc(NC(=O)N(C)C[C@H]2Oc3ccc(NC(=O)Nc4ccc(C(F)(F)F)cc4)cc3CC(=O)N([C@@H](C)CO)C[C@H]2C)cc1` the value was “inactive”.
On to `CC(=O)Nc1ccc(S(=O)(=O)Nc2onc(C)c2C)cc1`, for which the growth inhibition call is “inactive”.
`C[C@H](CO)N1C[C@H](C)[C@@H](CN(C)C(=O)Nc2ccc3c(c2)OCO3)Oc2ncc(-c3cncnc3)cc2C1=O`: the growth inhibition call is “inactive”.
`C[C@@H]1CN([C@H](C)CO)C(=O)Cc2cc(NS(=O)(=O)c3cn(C)cn3)ccc2O[C@H]1CN(C)Cc1ccncc1`: the growth inhibition call is “inactive”.
Turning to `CCCN(C)C[C@H]1OCCCC[C@@H](C)Oc2ccc(NC(=O)Nc3ccc(OC)cc3)cc2C(=O)N([C@H](C)CO)C[C@@H]1C`, the growth inhibition call was “inactive”.
The same measure, in the same setting: in the case of `C[C@@H]1CN([C@H](C)CO)S(=O)(=O)c2ccc(C3=CCCC3)cc2O[C@@H]1CN(C)C(=O)C1CCOCC1` it was “inactive”; in that of `C[C@H](CO)N1C[C@H](C)[C@H](CN(C)S(=O)(=O)c2cn(C)cn2)OCCCC[C@H](C)Oc2ccc(NC(=O)Nc3cccc4ccccc34)cc2C1=O`, “inactive”.
As to `CC(C)CC#Cc1cnc2c(c1)C(=O)N([C@H](C)CO)C[C@@H](C)[C@H](CN(C)S(=O)(=O)c1ccccc1)O2`, the growth inhibition call is “inactive”.
As to `CC1=CC(=O)C2=C(C)CCC3C(C)C(=O)OC3C12` (centres undefined), the growth inhibition call was “inactive”.
With `CN(CC(=O)NC1CCCCC1)S(C)(=O)=O`, the growth inhibition call is “inactive”.
`CC(C)NC(=O)N(C)C[C@@H]1Oc2c(NC(=O)NC3CCCCC3)cccc2C(=O)N([C@H](C)CO)C[C@@H]1C`: the growth inhibition call was “inactive”.
As to `C[C@@H]1CCCCO[C@H](CN(C)C(=O)Nc2ccc(F)cc2)[C@H](C)CN([C@@H](C)CO)C(=O)c2cc(NC(=O)NC3CCCCC3)ccc2O1`, the growth inhibition call is “inactive”.
With `C[C@@H]1CN([C@@H](C)CO)C(=O)c2cccc(NC(=O)c3ccncc3)c2O[C@H]1CN(C)S(=O)(=O)c1ccccc1`, the growth inhibition call is “inactive”.
The same measure, in the same setting: in the case of `CC(C)NC(=O)Nc1ccc2c(c1)C(=O)N([C@@H](C)CO)C[C@H](C)[C@H](CN(C)Cc1ccc(-c3ccccc3)cc1)O2` it was “inactive”.
In the case of `C[C@H]1CN([C@@H](C)CO)C(=O)c2cc(C#Cc3cccc(F)c3)cnc2O[C@@H]1CN(C)C(=O)C1CCOCC1`, the growth inhibition call is “inactive”.
As to `O=C(C[C@H]1CC[C@@H]2[C@H](COC[C@@H](O)CN2C(=O)Nc2cc(Cl)cc(Cl)c2)O1)N1CCOCC1`, the growth inhibition call is “inactive”.
As for `O=C(O)c1cccnc1Nc1cccc(C(F)(F)F)c1`, the growth inhibition call was “inactive”.
As to `C[C@@H]1CN([C@H](C)CO)C(=O)c2cc(NC(=O)Nc3ccccc3)ccc2O[C@@H](C)CCCCO[C@H]1CN(C)C(=O)Cc1ccccc1`, the growth inhibition call is “inactive”.
Still for that read-out and setting: in the case of `C(=C\[C@@H]1Nc2ccccc2-c2nc3ccccc3n21)/c1ccccc1` it was “inactive”; in that of `COc1ncc(-c2nc(N3CCOCC3)nc3c(CN4CCC(C(C)(C)O)CC4)cc(F)cc23)cc1NS(C)(=O)=O`, “inactive”.
